Laboratory results from publication PMC7559981.
No constants are given. Whether binding was seen depends on the method and setting. Binding seen in cells or lysates may run through a third protein. Some entries that bind do so weakly or less than the wild type. Tags and fused reporters may be left off the sequences shown.

Legend:
GST-TR4-FL [1] = target: T1, GST-TR4-FL (UniProt P49116); experiment: pull-down; GST pull-down of in vitro translated ^35S-labeled protein by purified GST-TR4 on beads, in the absence or presence of a non-radiolabeled in vitro translated competitor (TR4, Slug or Slug-2); only the target purified
T1 sequence: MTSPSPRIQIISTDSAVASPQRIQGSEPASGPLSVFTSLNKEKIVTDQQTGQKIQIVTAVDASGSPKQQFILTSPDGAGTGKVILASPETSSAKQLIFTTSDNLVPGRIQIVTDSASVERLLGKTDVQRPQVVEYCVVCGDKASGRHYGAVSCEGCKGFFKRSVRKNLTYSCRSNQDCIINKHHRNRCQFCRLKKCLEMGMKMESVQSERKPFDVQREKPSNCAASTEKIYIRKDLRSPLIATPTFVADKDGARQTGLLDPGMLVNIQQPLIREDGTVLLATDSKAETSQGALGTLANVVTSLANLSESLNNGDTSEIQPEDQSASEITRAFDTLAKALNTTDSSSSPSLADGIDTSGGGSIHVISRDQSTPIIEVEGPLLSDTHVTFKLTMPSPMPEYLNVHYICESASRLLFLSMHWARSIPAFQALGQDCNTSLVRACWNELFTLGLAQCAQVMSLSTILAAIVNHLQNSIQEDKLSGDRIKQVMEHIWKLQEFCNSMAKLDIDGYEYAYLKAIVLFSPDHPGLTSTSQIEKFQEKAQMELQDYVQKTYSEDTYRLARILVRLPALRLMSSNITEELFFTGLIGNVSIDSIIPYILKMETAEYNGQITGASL

GST-TR4-∆C [aa 1–348] [2] = target: T2, GST-TR4-∆C [aa 1–348] (UniProt P49116); experiment: as above
T2 sequence: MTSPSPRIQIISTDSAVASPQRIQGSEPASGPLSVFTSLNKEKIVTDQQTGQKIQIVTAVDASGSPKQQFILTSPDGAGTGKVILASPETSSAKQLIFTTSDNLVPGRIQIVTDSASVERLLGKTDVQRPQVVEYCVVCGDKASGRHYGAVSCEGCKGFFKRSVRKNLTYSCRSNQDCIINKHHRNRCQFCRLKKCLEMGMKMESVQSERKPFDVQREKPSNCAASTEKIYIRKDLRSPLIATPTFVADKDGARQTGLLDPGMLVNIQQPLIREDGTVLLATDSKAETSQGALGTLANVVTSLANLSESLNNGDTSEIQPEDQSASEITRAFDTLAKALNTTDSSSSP

GST-TR4-FL [3] = target: T1, GST-TR4-FL; experiment: condition: only in the presence of non-radiolabeled TR4; pull-down; GST pull-down of in vitro translated ^35S-labeled protein by purified GST-TR4 on beads, in the absence or presence of a non-radiolabeled in vitro translated competitor (TR4, Slug or Slug-2); only the target purified
GST-TR4-∆C [aa 1–348] [4] = target: T2, GST-TR4-∆C [aa 1–348]; experiment: as above
GST-TR4-FL [5] = target: T1, GST-TR4-FL; experiment: pull-down; purified GST fusion protein on glutathione-Sepharose-4B beads incubated 12 h at 4 °C with 5 μL of in vitro translated ^35S-labeled protein in GST binding buffer (50 mM HEPES pH 7.6, 50 mM NaCl, 0.1% Nonidet P-40, 5 mM EDTA, 10% glycerol); washes with 500 mM NaCl; SDS-PAGE and autoradiography; only the target purified
GST-TR4-∆C [aa 1–348] [6] = target: T2, GST-TR4-∆C [aa 1–348]; experiment: as above

B1: in vitro translated Slug (protein, UniProt P97469 1-269)
chain: MPRSFLVKKHFNASKKPNYSELDTHTVIISPYLYESYPIPVIPKPEILTSGAYSPITVWTSSAAPLHSPLPSGLSPLTGYSSSLGRVSPPPSSDTSSKDHSGSESPISDEEERLQPKLSDPHAIEAEKFQCNLCNKTYSTFSGLAKHKQLHCDAQSRKSFSCKYCDKEYVSLGALKMHIRTHTLPCVCKICGKAFSRPWLLQGHIRTHTGEKPFSCPHCNRAFADRSNLRAHLQTHSDVKKYQCKNCSKTFSRMSLLHKHEESGCCVAH
modifications: ^35S label (non-radiolabeled where used as competitor)
B1 was tested, and the binding (GST-TR4-FL [1]) was “binds”, the binding (GST-TR4-∆C [aa 1–348] [2]) was “binds” and the binding (GST-TR4-FL [3]) was “no binding”. For the same binder, the binding (GST-TR4-∆C [aa 1–348] [4]) was “no binding”, the binding (GST-TR4-FL [5]) was “binds” and the binding (GST-TR4-∆C [aa 1–348] [6]) was “binds”.
